B1: CPEB3 Ribozyme (parent)
chain: UAACAGGGGGCCACAGCAGAAGCGUUCACGUCGCAGCCCCUGUCAGAUUCUGGUGAAUCUGCGAAUUCUGCUGUAUAUCUC

Read counts are not given, so values of variants with three or more changes are uncertain.

In this data set the parent is B1. Nature of the data set: self-cleavage, relative activity (ratio to wild type); higher = more cleavage; in vitro, sequencing. The essentials:
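Libraries of CPEB3 self-cleaving ribozyme mutants came from rounds of error-prone PCR and carried barcodes, which DNA sequencing matched to variants. In vitro transcription used T7 RNA polymerase at 37°C for 5 hours, with a further 15 min in DNase I before EDTA stopped the reaction; the ribozymes cleaved during both steps. The RNA was reverse transcribed with template switching and sequenced on Illumina. Relative activity is the cleaved/total read fraction of a variant divided by that of the unmutated ribozyme, averaged over three batches with at least 5 reads.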
As for A20U A21U U31C U48A A56G U74C, the self-cleavage amounted to 0.06.

For the variant A20G U48C G61A, the self-cleavage turned out to be 0.12.

Turning to A20U A35G U72A U78C U80A, the self-cleavage turned out to be 0.64.

With A20G U48C G52C, the self-cleavage stood at 0.37.

Regarding A20G U26C A35U U51A G63A A65G U67C, the self-cleavage came to 0.17.

Regarding A20G U25C U26C U43A U51C, the self-cleavage is 0.09.

As to A20G U26A A35U U41C U51C, the self-cleavage worked out at 0.3.

A20G U31G G33U A56U: the self-cleavage was determined as 0.12.

In the case of A20G U51A G63C, the self-cleavage worked out at 0.82.

As to A20G U58C G61A U80C, the self-cleavage stood at 0.1.

A20G U74C U80C: the self-cleavage was 1.27.

Take A20U C32U A35U U41C U49C A56U: the self-cleavage turned out to be 0.05.

In the case of A20G U26C A47G U48G A56C U67G, the self-cleavage came to 0.09.

On to A20U U25C U26A U69A, for which the self-cleavage worked out at 0.15.

Regarding A20U A35G U58C, the self-cleavage worked out at 0.31.

With A20G U43C G46U, the self-cleavage is 0.2.

As for A20U A21G U31C U48C A57U U76C U78C, the self-cleavage was 0.07.

As to A20G U26A U41A, the self-cleavage was 0.36.

Consider A20U A28G U67C A77G, for which the self-cleavage stood at 0.12.

On to A20G U31G A35G U51C, for which the self-cleavage was found to be 1.05.

Consider A20G U60A U74C, for which the self-cleavage is 0.43.

Regarding A20U C32A U43A A64U, the self-cleavage is 0.07.

For the variant A20U A65G U72C, the self-cleavage stood at 0.15.

As to A20U A28G A56G, the self-cleavage was found to be 0.17.

On to A20G U41A U49A A64G, for which the self-cleavage worked out at 0.11.

In the case of A20U A21U U26C C34A A35G C40U A57U, the self-cleavage was 0.04.

Consider A20U U26A U41G A57G, for which the self-cleavage was 0.07.

Regarding A20U A56G U74A U80C, the self-cleavage was found to be 0.27.

For the variant A20G U43C U49A A56G, the self-cleavage worked out at 0.21.

With A20U U25C U80A, the self-cleavage came to 0.21.

A20U G52C U76A: the self-cleavage is 0.27.

For A20G U26A C40A U49C G70A, the self-cleavage came to 0.07.

In the case of A20U A35U U78C, the self-cleavage came to 0.14.

As to A20U G46A A64U, the self-cleavage came to 0.16.

Take A20G U25C U54A C62G: the self-cleavage was 0.06.

Consider A20U U25A U80C, for which the self-cleavage turned out to be 0.66.

Regarding A20G U60C U78A, the self-cleavage came out at 0.44.

With A20G U49C A57G, the self-cleavage worked out at 0.2.

Regarding A20U A21G U51G G55A, the self-cleavage amounted to 0.19.

Regarding A20G U25C G33A U51A, the self-cleavage was determined as 0.08.

Take A20G U26C U51C: the self-cleavage is 0.41.

As for A20G U43C U60A, the self-cleavage came to 0.58.

As for A20G U41C U54C A65G U80C, the self-cleavage worked out at 0.31.

On to A20U U25C U43C A45G C50U A64G U67A, for which the self-cleavage is 0.08.

Regarding A20U A45U U80C, the self-cleavage stood at 0.15.

A20G U41G U48C U49A A64U U78C: the self-cleavage came to 0.15.

On to A20G U25C U31A U74A, for which the self-cleavage was 0.39.

Take A20U A35G U51A: the self-cleavage was determined as 1.19.

Consider A20G U69C C81U, for which the self-cleavage is 0.57.

Regarding A20U C38G U60A U78A, the self-cleavage came to 0.1.

Consider A20U A45U A75G, for which the self-cleavage is 0.2.

A20U A35U U67A U80C: the self-cleavage was 0.58.

On to A20G U54C A64U, for which the self-cleavage is 0.14.

For the variant A20G U54A U67C C71G A77U, the self-cleavage came out at 0.33.

Consider A20U U26A C40A U67C U78C, for which the self-cleavage is 0.06.

As for A20G U41A U58C A65G U78C, the self-cleavage turned out to be 0.36.

Regarding A20G U26A U60C, the self-cleavage was determined as 0.2.

A20G U25A U51C C71U: the self-cleavage came to 0.25.

Consider A20U U25G U78C U80C, for which the self-cleavage stood at 0.04.

On to A20G U43A A57G U76A, for which the self-cleavage was 0.97.

For A20U G73A U74A, the self-cleavage was 0.63.

Take A20U U25C C32A A45U U51A U69C: the self-cleavage turned out to be 0.06.

Turning to A20G U31A U41C A57G A64U U80C, the self-cleavage turned out to be 0.31.

Consider A20U U25C A56G G73A, for which the self-cleavage came to 0.28.

For the variant A20G U49A U54A C68U, the self-cleavage was 0.47.

For the variant A20U A21G G24A A35U C39A U41C A75G, the self-cleavage amounted to 0.27.

In the case of A20G U25C U51A C59A, the self-cleavage stood at 0.14.

For the variant A20U A35G A56U U72A, the self-cleavage was determined as 0.11.

Consider A20G U26C G55U U60C U72C A77G, for which the self-cleavage came out at 0.14.

As for A20U A35U U43C U49C U72G A75U, the self-cleavage turned out to be 0.13.

With A20U C27A U43C A56G, the self-cleavage was 0.06.

With A20U A28G C40A U58A, the self-cleavage came to 0.18.

On to A20U U25C A45G U51A, for which the self-cleavage stood at 0.17.

A20G U31C C79U: the self-cleavage worked out at 0.75.

Turning to A20G U25C U43C A56G, the self-cleavage worked out at 0.23.

In the case of A20G U25C G63A, the self-cleavage came to 0.26.

Consider A20G U25C A35C, for which the self-cleavage was determined as 0.37.

Take A20G U49C A56U: the self-cleavage was 0.19.

Take A20G U54C A56C A57G U66C U78C: the self-cleavage worked out at 0.18.

In the case of A20G U49A U54C C68U, the self-cleavage stood at 0.09.

Turning to A20G U48A U60C, the self-cleavage stood at 0.16.

For the variant A20G U54C A56U C71U, the self-cleavage amounted to 0.21.

With A20G U26C U49C U74A, the self-cleavage was 0.1.
